This is an account of results in paper PMC4336329 (PLoS ONE, 2015).

Hit rate of the full screen: of about 310,000 compounds, about 2,200 (0.71%) showed an effect of 50% or more. The effect is printed as a negative number. This is one part of the list.

For this assay, the target named is human ether-à-go-go-related gene (hERG) potassium channel (human, UniProt Q12809). The experiment in a line: primary screen, population patch clamp on CHO cells stably expressing hERG.
Chain of human ether-à-go-go-related gene (hERG) potassium channel (Q12809 whole entry, looked up): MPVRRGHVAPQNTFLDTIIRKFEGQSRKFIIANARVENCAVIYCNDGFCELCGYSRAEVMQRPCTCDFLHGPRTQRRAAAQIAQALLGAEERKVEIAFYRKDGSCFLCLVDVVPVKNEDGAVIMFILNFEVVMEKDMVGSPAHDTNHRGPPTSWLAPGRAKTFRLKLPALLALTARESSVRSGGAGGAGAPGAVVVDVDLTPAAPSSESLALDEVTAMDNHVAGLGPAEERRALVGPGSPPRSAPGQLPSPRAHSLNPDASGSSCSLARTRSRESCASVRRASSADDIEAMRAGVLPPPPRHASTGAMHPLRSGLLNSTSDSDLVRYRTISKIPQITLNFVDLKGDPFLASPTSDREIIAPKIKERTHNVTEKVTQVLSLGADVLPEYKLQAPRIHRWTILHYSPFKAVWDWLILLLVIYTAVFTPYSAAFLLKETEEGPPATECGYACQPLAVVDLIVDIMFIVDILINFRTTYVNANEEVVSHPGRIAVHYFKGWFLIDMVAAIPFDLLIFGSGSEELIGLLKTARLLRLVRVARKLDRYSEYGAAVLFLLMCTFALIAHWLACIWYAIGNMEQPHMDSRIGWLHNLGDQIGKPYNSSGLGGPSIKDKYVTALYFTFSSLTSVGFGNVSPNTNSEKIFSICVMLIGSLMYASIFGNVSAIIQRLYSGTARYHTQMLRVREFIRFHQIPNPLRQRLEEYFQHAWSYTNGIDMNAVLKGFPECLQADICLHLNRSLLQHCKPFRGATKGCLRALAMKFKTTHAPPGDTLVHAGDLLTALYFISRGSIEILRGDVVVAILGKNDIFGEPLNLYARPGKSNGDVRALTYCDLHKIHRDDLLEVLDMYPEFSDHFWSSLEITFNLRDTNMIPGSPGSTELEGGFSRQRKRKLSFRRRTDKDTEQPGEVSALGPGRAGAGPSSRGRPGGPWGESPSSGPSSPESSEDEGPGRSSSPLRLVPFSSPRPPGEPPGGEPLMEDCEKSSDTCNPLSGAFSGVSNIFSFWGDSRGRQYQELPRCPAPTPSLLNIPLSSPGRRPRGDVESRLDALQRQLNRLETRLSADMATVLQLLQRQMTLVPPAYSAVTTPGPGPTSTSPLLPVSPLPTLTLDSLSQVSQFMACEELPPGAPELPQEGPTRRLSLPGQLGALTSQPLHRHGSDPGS
Regarding `Cc1ccc(C(=O)CSc2nc(C)cc(=O)[nH]2)cc1`, the “hERG current change (%, negative = inhibition) at 1uM” value was found to be 5.28%. To `Cc1cc(C)c(C)c(S(=O)(=O)NCc2ccco2)c1C` belongs -11.2%; to `CCO/C=C1/C(=O)N(C(C)=O)c2ccccc21`, 13.9%. With `CCN1CC(CN(C)Cc2cn(-c3ccc(C)cc3)nc2-c2ccc(F)cc2)CC1=O` (stereo not shown) the figure was 2.97%. For `CCCCN(C(=O)/C=C/c1ccco1)c1c(N)n(CCC)c(=O)[nH]c1=O`, the “hERG current change (%, negative = inhibition) at 1uM” value came out at 12.2%. In the case of `Cc1nc2c(c(C)c1C#N)C(=O)c1ccccc1-2`, the “hERG current change (%, negative = inhibition) at 1uM” value came to 4.27%.

As for `CC1=C(C(=O)N2CCOCC2)C(c2ccccc2F)C2=C(CCCC2=O)N1` (stereo not shown), the “hERG current change (%, negative = inhibition) at 1uM” value came out at 13.6%. With `CN(C)CCCOC(=O)CCc1ccccc1.Cl` the figure was 10.3%.

Regarding `O=C(Cn1c(=O)sc2ccccc21)Nc1ccccc1`, the “hERG current change (%, negative = inhibition) at 1uM” value is 11.2%.

Turning to `CSc1oc(-c2ccccc2)nc1C(N)=O`, the “hERG current change (%, negative = inhibition) at 1uM” value amounted to 3.41%. With `O=c1cc(CO)occ1OCc1ccccc1` the figure was 10.2%; with `CCc1ccc(/C=C(/C#N)C(N)=S)cc1`, 7.17%. With `CCNC(=S)N/N=C(\C)c1cccc(C(F)(F)F)c1` the figure was 25.6%.

In the case of `COc1cc(/C=N/NC(=O)C(=O)Nc2ccccn2)ccc1O`, the “hERG current change (%, negative = inhibition) at 1uM” value is listed as -5.79%. With `CCOC(=O)C1CCc2nc3ccccc3c(=O)n21` (stereo not shown) the figure was 5.67%; with `CC(C)c1ccc(NC(=O)N2CCOCC2)cc1`, 15.6%; with `CC(=O)NC12CC3CC(C1)CC(C(=O)N(C)CC(=O)Nc1cccc(F)c1)(C3)C2`, 8.64%. As to `CC(=O)N1CCOc2cc(S(=O)(=O)NC(C)c3ccccc3)c(Cl)cc21` (stereo not shown), the “hERG current change (%, negative = inhibition) at 1uM” value amounted to 9.56%. With `COc1ccc(/C=N/N=C2\SC(CC(=O)O)C(=O)N2c2ccccc2)cc1` (stereo not shown) the figure was 19.2%. As for `CCC(C)NC(=O)CC(c1ccc(OC)cc1)n1cccc1` (stereo not shown), the “hERG current change (%, negative = inhibition) at 1uM” value worked out at 1.65%. To `CCCOc1ccc(C(=O)CCNc2cccc(Cl)c2)cc1` belongs 21.7%; to `Cc1ccnc(NC(NC(=O)C(C)C)(C(F)(F)F)C(F)(F)F)c1`, 2.44%; to `COc1ccc(C(=O)NCCN2CCOCC2)cc1OC`, 2.65%. For `CC1CN(c2ccc([N+](=O)[O-])cc2C(=O)N2CCOCC2)CC(C)N1` (stereo not shown), the “hERG current change (%, negative = inhibition) at 1uM” value stood at 2.25%. To `N#Cc1cccc(NC(=O)c2nc(-c3ccccc3)n(-c3ccccc3)n2)c1` belongs -0.839%; to `Cc1ccc(-c2nnn3c2nc(NCCc2ccc(S(N)(=O)=O)cc2)c2ccccc23)cc1`, 9.82%; to `CCOc1ccc(-c2cc(N)n(S(=O)(=O)c3ccc(OC)c(OC)c3)n2)cc1`, 7.14%. To `O=C(Nc1ccc(F)cc1F)c1cc(-c2ccco2)nc2ccccc12` belongs 1.79%; to `COc1ccc(CCNC(=O)C(C)c2ccc([N+](=O)[O-])cc2)cc1` (stereo not shown), -2.82%. With `CCN(CC)CCN(C(=O)c1ccc2c(c1)CCCC2)c1nc2ccc(OC)cc2s1.Cl` the figure was 3.48%; with `O=C(OCCN=C1NS(=O)(=O)c2ccccc21)C1CC(=O)N(c2ccc(Cl)cc2)C1` (stereo not shown), 5.38%. `COc1cc(/C=C/C(=O)O)cc(OC)c1OC`: the “hERG current change (%, negative = inhibition) at 1uM” value is reported as 8.73%. In the case of `Cc1nn(CC(=O)N2CCCCCC2)c(=O)c2cc3occc3n12`, the “hERG current change (%, negative = inhibition) at 1uM” value was found to be 15.5%. With `CC(=O)Nc1ccc(S(=O)(=O)Nc2nccc(/C=C/c3ccc(Cl)cc3)n2)cc1` the figure was 1.45%; with `O=C(Nc1nc(-c2ccc(F)cc2)cs1)C1CCCO1` (stereo not shown), 3.35%; with `COc1cc2[nH]c(=S)nc(NCc3cccs3)c2cc1OC`, 12.2%. `CC(C)C[C@H](NC(=O)C1CC(=O)N(c2ccc3c(c2)OCO3)C1)C(=O)NC1CCCCC1` (stereo partly shown): the “hERG current change (%, negative = inhibition) at 1uM” value is 26.2%. To `C=CCNC(=O)c1onc(CSc2cc(C)cc(C)c2)c1C(=O)O` belongs 9.31%.

Take `O=C(Cn1c(SCC(=O)N2CCc3ccccc3C2)nc2ccccc21)NC1CCCC1`: the “hERG current change (%, negative = inhibition) at 1uM” value worked out at 7.98%. With `O=C(CCCCn1c(=O)[nH]c2ccsc2c1=O)NCc1ccc2c(c1)OCO2`, the “hERG current change (%, negative = inhibition) at 1uM” value was 4.87%.

For `COc1ccc(-c2[nH]ncc2CN2CCC(OCc3ccccc3)CC2)c(F)c1`, the “hERG current change (%, negative = inhibition) at 1uM” value is -64.5%. For the compound `CCC(CC)C(=O)Nc1cc(C)cc(C)c1`, the “hERG current change (%, negative = inhibition) at 1uM” value was determined as 16.9%. To `CCCCNC(=O)c1cc2c(=O)n3cccc(C)c3nc2n(Cc2ccncc2)c1=N` belongs -75.4%; to `CN(C(=O)CSc1ncccn1)C1CCS(=O)(=O)C1` (stereo not shown), 11.6%. For the compound `NC(=O)CN1CCOCCOCCOCCOCCOCC1`, the “hERG current change (%, negative = inhibition) at 1uM” value worked out at 11.9%. To `O=C(NCCC1=CCCCC1)c1coc(=O)c(Br)c1` belongs -3.36%.
